# Source: PubChem BioAssay AID1461 (National Center for Advancing Translational Sciences (NCATS), 2008)
# Screen size: about 220,000 compounds; about 2,300 (1%) were called active. The shares of active, inactive and inconclusive entries below differ from those in the screen. The call rests on the fitted dose curve; in most records, active means well fitted inhibition curve with a large enough effect; inconclusive means small, poorly fitted or top-dose-only effect, or effect the other way; inactive means no such curve, though single readings can be large or run the other way. No potency is given beside an inconclusive call; the fits are too rough.
# Target: Neuropeptide S receptor (Homo sapiens) (UniProt Q6W5P4)
# Assay: qHTS Assay for Antagonists of the Neuropeptide S Receptor: cAMP Signal Transduction; further: nearly all actives have a fitted effect of over 50% in size
# Settings: CHO-NPSR cells, cAMP TR-FRET, antagonist mode; series mostly up to 38.3 µM
# Potency means the concentration at half of the fitted maximal effect; tags describe the fitted curve by direction and shape.
# Chain of UniProt Q6W5P4 (Q6W5P4 whole entry, looked up): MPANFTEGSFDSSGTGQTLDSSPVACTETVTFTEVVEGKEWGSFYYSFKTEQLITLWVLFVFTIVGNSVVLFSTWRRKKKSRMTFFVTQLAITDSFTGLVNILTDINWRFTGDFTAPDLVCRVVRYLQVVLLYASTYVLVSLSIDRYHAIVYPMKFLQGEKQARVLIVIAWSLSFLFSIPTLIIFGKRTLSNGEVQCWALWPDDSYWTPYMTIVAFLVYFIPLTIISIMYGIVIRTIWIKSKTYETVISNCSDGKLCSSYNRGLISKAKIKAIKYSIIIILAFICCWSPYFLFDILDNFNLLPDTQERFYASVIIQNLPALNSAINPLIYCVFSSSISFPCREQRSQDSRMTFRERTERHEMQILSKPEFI
row,Compound,Potency
1,CCOC(=O)/C(C#N)=C/c1cc2ccccc2nc1N1CCOCC1,inactive
2,O=C(c1ccccc1)N1CCN2C(=O)c3ccccc3C12c1ccc(Cl)cc1 (stereo unspecified),"inconclusive [inhibitor, single point]"
3,CCN(CC)S(=O)(=O)c1ccc(C(=O)Nc2ccc(Cc3ccncc3)cc2)cc1,"inconclusive [activator, single point]"
4,O=C(CS(=O)CC(=O)N(CC(=O)NC1CCCC1)C1CCCCC1)Nc1ccc(F)cc1 (stereo unspecified),"inconclusive [inhibitor, single point]"
5,O=[N+]([O-])c1cc(Cl)c2cccnc2c1O,inactive
6,Clc1cccc(/C=N\Nc2nccs2)c1,inactive
7,S=C(Nc1ccc2nsnc2c1)N1CCCCCC1,inactive
8,COc1ccc(OC)c(-c2cc(C(=O)Nc3c(C)nn(Cc4ccccc4Cl)c3C)no2)c1,"inconclusive [inhibitor, partial curve]"
9,CC(=O)OCC1O[C@@H](O[C@@H]2C[C@H]3C(C)(C)[C@H](OC(C)=O)CC[C@]3(C)[C@H]3CC[C@]45C[C@]4(CC[C@H]5[C@@H](C)C[C@@H](O)[C@H](O)C(C)(C)O)[C@@]32C)[C@H](O)[C@@H](O)[C@@H]1O (stereo partly specified),"inconclusive [inhibitor, single point]"
10,Cc1ccc(-n2nc(C)c3c(C)c(CCC(=O)NCc4ccccc4)c(C)nc32)cc1,"inconclusive [inhibitor, single point]"
11,O=C(/C=C/c1ccc(Br)cc1)NC(=S)Nc1ccc(S(=O)(=O)Nc2nccs2)cc1,"inconclusive [inhibitor, single point]"
12,N#Cc1cc2c(nc1SCc1ccccc1)CCC2,"inconclusive [inhibitor, single point]"
13,CC1(C)CC(NC(=O)c2ccccn2)CC(C)(C)N1O,inactive
14,CC1Cc2ccccc2N1C(=O)c1ccc(N2CCCC2)c([N+](=O)[O-])c1 (stereo unspecified),inactive
15,O=C(CSc1ncnc2c1sc1ccccc12)Nc1ccc(Br)cc1,"inconclusive [inhibitor, single point]"
16,COc1ccc(-c2cc(C(=O)OC(C)C(=O)Nc3c(C)n(C)n(-c4ccccc4)c3=O)c3ccccc3n2)cc1 (stereo unspecified),inactive
17,Cc1cccc(Nc2nnc(SCC(=O)NC3CCCc4ccccc43)s2)c1C (stereo unspecified),"inconclusive [inhibitor, single point]"
18,COc1ccccc1NC(=O)CN1CCN(c2ccc(Cl)cc2)CC1,"inconclusive [inhibitor, single point]"
19,CN1CCS/C1=C/C=C1\SC(=S)N(CC(=O)O)C1=O,inactive
20,Cc1ccc(C)c(OCCCCn2cnc3ccccc3c2=O)c1,"inconclusive [inhibitor, single point]"
21,CCOc1cc([N+](=O)[O-])cc(/C=C2/NC(=O)N(Cc3ccccc3F)C2=O)c1O,"inconclusive [activator, partial curve]"
22,O=C(c1noc2c1CCCC2)N1CCN(C(c2ccccc2)c2ccccc2)CC1,"inconclusive [inhibitor, single point]"
23,CCOC(=O)C(=CNc1cc(C)nn1-c1ccc(C)cc1)C(=O)OCC,"inconclusive [inhibitor, single point]"

row,Compound,Potency
1,Cc1ccsc1/C=C1\SC(N2CCOCC2)=NC1=O,"inconclusive [inhibitor, full curve]"
2,O=C(NC(=S)Nc1ccc(N2CCOCC2)cc1)c1cncc(Br)c1,inactive
3,CCc1ccccc1NNC(=O)c1cc(C)on1,inactive
4,Cc1cc(C)c(S(=O)(=O)Nc2ccc3c4c(cccc24)CC3)c(C)c1,"inconclusive [activator, full curve, poor fit]"
5,CCOC(=O)c1ccc(N=CC2=C(O)CC(C)(C)CC2=O)cc1,inactive
6,CC(C)(C)C1CCc2nc(NC(=O)Cc3cn4ccsc4n3)sc2C1 (stereo unspecified),"inconclusive [inhibitor, single point]"
7,CC(C)N(C(=O)NC(=O)Nc1ccccn1)S(C)(=O)=O,inactive
8,Cc1cn(-c2ccc(Br)cc2)[nH]c1=O,"inconclusive [activator, single point]"
9,N=c1n(Cc2ccccc2)c2ccccc2n1CC(O)COc1ccc(Cl)cc1Cl (stereo unspecified),"inconclusive [inhibitor, single point]"
10,c1ccc(-c2cc(-c3nn4c(-c5ccco5)nnc4s3)c3ccccc3n2)cc1,"inconclusive [inhibitor, partial curve]"
11,CC(N=C(NC#N)Nc1ccncc1)C(C)(C)C (stereo unspecified),"inconclusive [inhibitor, single point]"
12,O=C(CSc1nnc(-c2cccs2)o1)N1CCc2ccccc21,"inconclusive [inhibitor, single point]"
13,COCCNC(C(=O)Nc1ccc([N+](=O)[O-])cc1Br)c1ccccc1 (stereo unspecified),inactive
14,CC1CC(=O)C2=C(C1)OC(N)=C(C#N)C2c1coc2ccccc2c1=O (stereo unspecified),inactive
15,Cc1ccc(Cn2nc(C)cc2C(=O)Nc2ccc(Cl)cc2)cc1,"inconclusive [activator, single point]"
16,CNCc1ccccc1Sc1cc(O)ccc1O,inactive
17,C=CCNC(=S)NC(=O)c1csc([N+](=O)[O-])c1,"inconclusive [activator, single point]"
18,COc1ccc2[nH]c(=O)c(CN(Cc3ccco3)C(=O)c3ccccc3)cc2c1,"inconclusive [activator, partial curve]"
19,COc1ccccc1CCNC(=O)c1cc(-c2ccccn2)nc2ccc(Br)cc12,"inconclusive [inhibitor, single point]"
20,CCOC(=O)c1[nH]c(C)c(/C=N/O)c1C,inactive
21,O=C(COc1c(F)c(F)c(C(F)(F)F)c(F)c1F)Nc1ccc(N2CCOCC2)c(Cl)c1,"inconclusive [inhibitor, partial curve]"
22,Cc1nn(CCc2n[nH]c(=S)n2C2CCCCC2)c(C)c1Br,inactive
23,COc1ccc(-c2oc(NC(=O)c3ccc(C)cc3)c(C#N)c2-c2ccc(OC)cc2)cc1,inactive
